Screen size: about 340,000 compounds; about 6,900 (2%) were called active. Rule as the data show it: active = inhibition above about 30%; inactive = below that, where a call was filed. Only a part is listed here, and it is no random draw. The source gives no active or inactive call for entries shown without one.
target: D(2) dopamine receptor (Homo sapiens) (UniProt P14416); experiment: HTS Assay for Allosteric Antagonists of the Human D2 Dopamine Receptor: Primary Screen for Antagonists; conditions: HEK293 TREx D2 cells, calcium flux, dopamine EC80; at 10 µM; stronger effect = higher value; also: 0% is about no effect
Sequence of UniProt P14416 (P14416 whole entry, looked up): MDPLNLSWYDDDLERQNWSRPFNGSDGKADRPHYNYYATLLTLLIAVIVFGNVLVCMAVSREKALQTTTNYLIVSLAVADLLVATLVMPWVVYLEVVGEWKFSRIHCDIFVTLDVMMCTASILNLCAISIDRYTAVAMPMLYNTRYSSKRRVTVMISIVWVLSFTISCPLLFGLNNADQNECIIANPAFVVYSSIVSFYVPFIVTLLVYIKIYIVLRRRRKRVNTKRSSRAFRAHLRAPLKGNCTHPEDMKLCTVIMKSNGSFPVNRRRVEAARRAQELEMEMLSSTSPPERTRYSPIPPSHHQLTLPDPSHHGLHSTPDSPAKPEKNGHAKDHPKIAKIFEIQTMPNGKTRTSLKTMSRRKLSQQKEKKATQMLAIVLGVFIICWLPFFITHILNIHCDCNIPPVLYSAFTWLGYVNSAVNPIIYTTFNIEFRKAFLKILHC
How it was run: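 Calcium flux kinetic readout in an inducible HEK293 TREx D2 line plated overnight at 30 C. After 180 s compound exposure, an EC80 dopamine challenge follows with another 180 s kinetic read to detect antagonism.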

SMILES | inhibition
Fc1ccccc1Cn1cnc(NC(=S)NCCc2ccccc2)n1 | active: 40.1%
Cc1cc(Cl)ccc1OCC(=O)Nc1c(Cl)ccc2nsnc12 | 19.5%
Cc1nn2c(=O)cc(COC(=O)c3ccco3)nc2s1 | -5.4%
COc1cccc(CNCCSc2nnnn2C)c1OCc1ccccc1Cl | 16%
COc1cccc(CNS(=O)(=O)c2ccc3c(c2)CCN3C(=O)C2CCC2)c1 | 4.81%
O=C(c1ccco1)n1nc(-c2ccccc2)nc1NCc1ccc(Cl)cc1 | 5.1%
Cc1nn(-c2ccccc2)c2c1N(CCCC(=O)NCc1ccc(N(C)C)cc1)C(=O)CS2 | 1.63%
CCc1ccc(NCc2cc3ccc(OC)cc3n(CC(=O)Nc3ccc(F)cc3F)c2=O)cc1 | 16.5%
CCC(=O)N1c2ccccc2CC1C(=O)N1CCN(c2cccc(Cl)c2)CC1 (stereo not drawn) | 1.11%
CCC(=O)N1CCc2cc(S(=O)(=O)CCC(=O)Nc3ccc(OC(F)(F)F)cc3)ccc21 | -2.4%
COc1ccc(CC(=O)Nc2sc3c(c2C(=O)Nc2cccc(Cl)c2)CCCCC3)cc1 | -5.09%
CC(C)Oc1ccc(CNC(=O)CCCN2C(=O)CCn3nc(-c4cccn4C)cc32)cc1 | 2.62%
COc1ccccc1N1CCN(C(=O)C(CCSC)NS(=O)(=O)c2ccc3c(c2)oc(=O)n3C)CC1 (stereo not drawn) | 14.8%
Cc1ccc(C)c(OCCC(=O)NNC(=O)c2ccncc2)c1 | active: 43.4%
COC(=O)CSc1ncc2c(n1)-c1ccccc1N(Cc1ccccc1C)S2(=O)=O | -3.61%
Cc1cccc(-c2nc(C)c(CCNC(=O)C(=O)Nc3cccc(Cl)c3C)s2)c1 | -16.9%
O=C(Cn1cc(SCc2ccc(C(F)(F)F)cc2)c2ccccc21)N1CCOCC1 | -10.2%
O=C(NCc1ccccc1)c1cc2sccc2n1Cc1ccc(Cl)cc1 | -3.02%
CCCCSc1nc(-c2ccc(OC)cc2)ccc1C#N | -4.97%
Cc1ccc(-c2nc(-c3cc4c([nH]c3=O)CC(C)(C)CC4=O)sc2C)cc1 | -17.3%
COC(=O)c1ccccc1NC(=O)Cn1c(CCC(=O)O)ccc1-c1cccs1 | 1.43%

SMILES | inhibition
CC(=O)Nc1ccc(/C=C/c2nc(-c3ccccc3O)n(-c3ccccc3)n2)cc1 | 0.172%
Cn1c(=O)oc2cc(S(=O)(=O)N3CCCC(C(=O)NCCc4ccc(Cl)cc4)C3)ccc21 (stereo not drawn) | -3.56%
COc1ccccc1CNS(=O)(=O)c1ccc2c(c1)NC(=O)C(C)C(=O)N2 (stereo not drawn) | 6.21%
CCOc1ccc(Br)cc1S(=O)(=O)N1CCCC1 | active: 53.6%
Cc1ccc2occ(CC(=O)N(Cc3ccccc3Cl)C3CCS(=O)(=O)C3)c2c1 (stereo not drawn) | -1.29%
OCCC1CN(Cc2cc(F)ccc2F)CCN1CCCc1ccccc1 (stereo not drawn) | active: 83.2%
O=C(CSc1oc(-c2ccccc2)nc1S(=O)(=O)c1ccc(Cl)cc1)Nc1ccc(F)cc1 | -6.06%
CC1CCC(Nc2nc3c(-c4ccc(Cl)cc4)nnn3c3ccccc23)CC1 (stereo not drawn) | 4.75%
Cc1ccc(Cn2cc(CCC(=O)NC3CCC(C)CC3)c3ccccc32)cc1 (stereo not drawn) | 7.58%
N#Cc1c[nH]n2c(NC3CCCCC3)c(-c3ccccc3F)nc12 | 15.1%
Cc1c(-c2nsc(NC(=O)c3cccs3)n2)nnn1-c1ccc(Cl)cc1 | 4.9%
O=C(C1CCN(S(=O)(=O)c2cccs2)CC1)N1CCN(c2cccc(Cl)c2)CC1 | 25.5%
CCSc1ncc(Cl)c(C(=O)N(Cc2ccccc2Cl)C2CCS(=O)(=O)C2)n1 (stereo not drawn) | 14.4%
CCN(CC)CCCNC(=O)c1ccc2c(c1)N(Cc1c(F)cccc1Cl)C(=O)c1ccccc1S2 | -21.6%
COC(=O)c1nnn(CC(=O)Nc2cc(F)ccc2F)c1C(=O)OC | -1.76%
O=C(NCCc1ccc(Cl)cc1)C(=O)NCC(c1ccco1)S(=O)(=O)c1cccs1 (stereo not drawn) | 14.3%
Cc1cccc(-n2ncc(C(=O)N3CCc4ccccc4C3)c2C2CCN(C(=O)OC(C)(C)C)CC2)c1 | 10.5%
Cc1oc2ccc(O)c(CN3CCCCCC3)c2c1C(=O)Nc1cccc(Cl)c1C | 17.1%
CCOc1ccc(S(=O)(=O)N2CCC(N3CCN(Cc4ccc(F)cc4)C(=O)C3=O)CC2)cc1 | -1.5%
CC(=O)c1cccc(NCc2ccccc2-c2nnc(-c3ccccc3)o2)c1 | -2.14%
Cc1cccc(NC(=O)CSc2nnc(N)s2)c1 | 7.76%

SMILES | inhibition
O=C(NC1(C(F)(F)F)NC(=O)N(CCc2ccccc2)C1=O)c1ccccc1Cl (stereo not drawn) | 22.3%
Cc1nc(-n2nc(C)c(Cc3ccccc3Cl)c2C)sc1C(=O)N1CCC(C)CC1 | -8.65%
O=C(CCn1cccn1)NCc1ccc(Cl)cc1 | 5.87%
CCOC(=O)C(CC)Sc1ncnc2sc3c(c12)CCCC3 (stereo not drawn) | 2.32%
Cc1ccc(OCCSc2nc3ccc(NC(=O)c4ccc5c(c4)OCO5)cc3s2)cc1 | -23.8%
O=C(Nc1ccc(F)cc1)C1CCN(c2nc3ccccc3n3cccc23)CC1 | 19.8%
CCOC(=O)C1CCCN(C(=O)c2c(C)nn(-c3ccc(F)cc3)c2-n2cccc2)C1 (stereo not drawn) | -4.05%
COc1ccc(NC(=O)c2cc3c(=O)n(C)c4ccccc4c3s2)cc1Cl | 8.03%
CCOc1ccc(-c2cc3c(=O)n(CC(=O)NCc4ccc(OC)cc4)ccn3n2)cc1 | 0.498%
CCCc1ccc(OC(=O)CSc2nnc(-c3cccs3)o2)cc1 | 26.8%
CSc1ccc(CCNC(=O)CCn2c(=O)c3cccn3c3cccnc32)cc1 | -6.26%
O=C(Nc1ccc(N2CCCCC2)cc1)c1cccnc1 | active: 33.9%
Cc1ccc(-c2nc3ccccc3o2)cc1NC(=O)c1cccc2c(Cl)cccc12 | 6.55%
CCC(=O)N1c2ccccc2CC1C(=O)NCCN1CCN(c2cccc(C)c2C)CC1 (stereo not drawn) | 7.74%
Cc1nc2sccn2c(=O)c1S(=O)(=O)Nc1ccc(N2CCN(S(C)(=O)=O)CC2)cc1 | -25.8%
Cc1ccc(/C=[N+](\[O-])c2ccc(N(C)C)cc2)c2nsnc12 | active: 48.4%
O=C(CSc1nc(-c2ccccc2)[nH]c1-c1ccccc1)Nc1ccc2c(c1)OCO2 | 20.8%
Cc1cccc(Nc2nc(-c3ccccc3)c3cc(C)ccc3n2)c1 | 5.67%
Cc1ccccc1NCc1cccn1-c1nnc(N2CCOCC2)s1 | -7.16%
O=[N+]([O-])c1cc(-c2nc(-c3ccccc3)no2)ccc1N1CCCC1 | -8.26%
CCC(Sc1nc2c(sc3ccccc32)c(=O)n1CCCC(=O)NC1CCCC1)C(=O)Nc1cccc(OC)c1 (stereo not drawn) | -11.8%

Reference: PubChem BioAssay AID485344 (National Center for Advancing Translational Sciences (NCATS), 2010)
